Test results as given in PubChem BioAssay AID1768 (National Center for Advancing Translational Sciences (NCATS), 2009).
Screen size: about 270,000 compounds; about 620 (0.23%) were called active. Inconclusive results, whose numbers are uncertain, are shown with a selection of clear calls. The call rests on the fitted dose curve; in most records, active means well fitted inhibition curve with a large enough effect in the polarisation, with a control signal flat (not every such curve was filed as active); inconclusive means small, poorly fitted or top-dose-only effect, or effect the other way, or a change in a side signal; inactive means no such curve, though single readings can be large or run the other way; the % refers to the polarisation. Potencies of inconclusive entries are doubtful fits and often do not repeat. “Side channel” marks fits to a control or component signal instead of the main read-out.

target: Menin (Homo sapiens) (UniProt O00255); assay: qHTS Assay for Inhibitors Targeting the Menin-MLL Interaction in MLL Related Leukemias: Competition With Texas Red Labeled MLL-derived Mutant Peptide; details: fluorescence polarization; FP activity change, negative = inhibition: at 61.6 µM (top of the series); on FP activity change, negative = inhibition: % of control where 0% means no effect
UniProt O00255, sequence (O00255 whole entry, looked up): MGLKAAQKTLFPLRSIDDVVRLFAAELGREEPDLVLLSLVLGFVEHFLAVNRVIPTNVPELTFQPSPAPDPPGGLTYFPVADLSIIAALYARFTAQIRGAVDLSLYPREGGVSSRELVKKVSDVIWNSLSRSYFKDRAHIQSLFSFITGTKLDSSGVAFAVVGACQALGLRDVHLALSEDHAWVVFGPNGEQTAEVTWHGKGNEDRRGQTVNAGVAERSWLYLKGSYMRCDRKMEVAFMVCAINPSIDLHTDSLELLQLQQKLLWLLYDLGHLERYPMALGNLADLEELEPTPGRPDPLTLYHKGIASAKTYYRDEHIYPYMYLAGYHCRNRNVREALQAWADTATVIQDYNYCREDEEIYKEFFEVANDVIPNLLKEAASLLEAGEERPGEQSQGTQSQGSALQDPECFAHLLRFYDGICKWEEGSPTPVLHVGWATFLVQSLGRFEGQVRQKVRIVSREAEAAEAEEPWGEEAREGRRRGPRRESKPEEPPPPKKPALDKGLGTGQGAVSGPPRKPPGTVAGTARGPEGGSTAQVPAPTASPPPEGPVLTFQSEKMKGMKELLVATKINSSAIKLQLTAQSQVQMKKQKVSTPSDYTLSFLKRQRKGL
Potency means the concentration at half of the fitted maximal effect; tags describe the fitted curve by direction and shape or compound fluorescence and quenching.

SMILES	Potency	FP activity change, negative = inhibition
CCCC(=O)Nc1nc2ccc(NC(=O)c3ccccc3F)cc2s1	inconclusive: 22.4 µM [quencher, side channel, partial curve]	–
CCN(CC)S(=O)(=O)c1ccc(N/N=C/c2ccc(O)cc2)nc1	inconclusive: 7.94 µM [quencher, side channel, partial curve]	–
COc1ccc(CCN(Cc2ccccn2)C(=S)Nc2cccc(SC)c2)cc1OC	inconclusive: 39.8 µM [quencher, side channel, single point]	–
Cc1ccc(CNC(=O)c2ccc(-n3cccc3)cc2)cc1	inconclusive: 28.2 µM [quencher, side channel, partial curve]	–
COC(=O)c1ccc2c(c1)NC(=O)CS2	–	inactive: 1.31%
Cc1ccccc1C(=O)N(Cc1nc2ccccc2c(=O)[nH]1)C1CCCC1	inconclusive: 7.94 µM [fluorescent, side channel, partial curve]	–
COc1ccc(CCNC(=O)C2CCN(S(=O)(=O)c3ccc(OC)c(OC)c3)CC2)cc1OC	inconclusive: 31.6 µM [quencher, side channel, single point]	–
O=C(Nc1ccc(NS(=O)(=O)c2ccccc2)cc1)c1ccc(Cl)cc1	inconclusive: 39.8 µM [inhibitor, single point]	–
O=C(O)c1ccc(NC(=S)NC(=O)c2cccc(COc3ccccc3)c2)cc1	inconclusive: 22.4 µM [quencher, side channel, partial curve]	–
COc1ccc(-c2c(C)oc3cc(O)cc(O)c3c2=O)cc1OC	inconclusive: 28.2 µM [inhibitor, single point]	–
Nc1c(-c2ccc(Cl)cc2)cnn1-c1ccccc1	inconclusive: 39.8 µM [inhibitor, single point]	–
Cc1ccc(CNC(=O)Cn2c(=O)n(-c3ccccc3)c(=O)c3sccc32)cc1	inconclusive: 22.4 µM [fluorescent, side channel, partial curve]	–
OCC1(Cc2ccccc2F)CCCN(Cc2c(F)ccc(F)c2F)C1 (stereo not drawn)	inconclusive: 3.16 µM [inhibitor, partial curve]	–
O=c1oc2ccccc2c2nccnc12	inconclusive: 11.2 µM [inhibitor, partial curve]	–
COc1ccc(/C=C/C(=O)Nc2cccnc2)cc1OC	inconclusive: 39.8 µM [inhibitor, single point]	–
Cc1ccc(OC(F)F)c(NC(=O)Nc2ccc3c(c2)OCO3)c1	inconclusive: 14.1 µM [quencher, side channel, partial curve]	–
CCC1CC=CC2C1C(=O)N(Cc1ccccc1)C2c1cc(C)ccc1F (stereo not drawn)	inconclusive: 3.16 µM [fluorescent, side channel, full curve]	–
O=C(NCCCN1CCN(c2ccc(F)cc2)CC1)NC12CC3CC(CC(C3)C1)C2	inconclusive: 25.1 µM [inhibitor, partial curve]	–
Cc1c(Br)c([N+](=O)[O-])nn1CC(=O)Nc1nccs1	–	inactive: 12.9%
O=C(N/N=C/c1sc(N2CCOCC2)nc1-c1ccccc1)c1ccc(O)cc1	inconclusive: 25.1 µM [quencher, side channel, partial curve]	–

SMILES	Potency	FP activity change, negative = inhibition
Nc1c(C(=O)NCCN2CCOCC2)c2nc3ccccc3nc2n1-c1cccc(F)c1	–	inactive: 0.806%
CCOC(=O)C1(Cc2ccccc2C(F)(F)F)CCN(C(C)CSC)CC1 (stereo not drawn)	inconclusive: 14.1 µM [fluorescent, side channel, partial curve]	–
COc1cc(NC(=O)c2ccc([N+](=O)[O-])o2)ccc1NC(=O)c1cccs1	inconclusive: 35.5 µM [quencher, side channel, single point]	–
CCS(=O)(=O)Nc1ccc(C2=NN(C(=S)Nc3ccccc3)C(c3ccco3)C2)cc1 (stereo not drawn)	inconclusive: 17.8 µM [quencher, side channel, partial curve]	–
O=C(COC(=O)c1ccccn1)c1cccc(Br)c1	inconclusive: 39.8 µM [quencher, side channel, single point]	–
O=C(CCc1ccc(Oc2cc([N+](=O)[O-])cc([N+](=O)[O-])c2)cc1)N1CCCCC1	inconclusive: 14.1 µM [inhibitor, partial curve]	–
CCCc1cc(C(=O)Nc2cccc([N+](=O)[O-])c2)cs1	inconclusive: 20 µM [quencher, partial curve]	–
Cc1cccc(NC(=O)C2C(c3ccccc3)C2(Cl)Cl)c1 (stereo not drawn)	inconclusive: 11.2 µM [quencher, side channel, partial curve]	–
COC(=O)c1c(NC(=O)CN2CCC3(O)CCCCC3C2c2ccc(OC)cc2OC)sc(C)c1C (stereo not drawn)	–	inactive: 5.94%
Cc1ccc(C)c(NC(=O)c2cc(-c3cc(C)cc(C)c3O)n[nH]2)c1	inconclusive: 15.8 µM [quencher, partial curve]	–
Cc1[nH]c(=O)c(C#N)cc1-c1csc(-c2ccccc2)n1	inconclusive: 28.2 µM [fluorescent, side channel, single point]	–
Cn1cc(Cl)c(C(=O)OCC(=O)Nc2nc(-c3ccc(Br)cc3)cs2)n1	inconclusive: 10 µM [quencher, side channel, partial curve]	–
O=C(/C=C/c1ccco1)Nc1cccc(-c2nc3ccccc3[nH]2)c1	inconclusive: 12.6 µM [quencher, side channel, partial curve]	–
CCCn1c2ccccc2c2nnc(SCC(=O)Nc3ncccn3)nc21	inconclusive: 31.6 µM [quencher, side channel, single point]	–
Cc1ccc(-c2c(C(=O)N/N=C/c3c[nH]c4ccccc34)nnn2-c2nonc2N)cc1	inconclusive: 3.16 µM [quencher, side channel, full curve]	–
Cc1ccc2nc(SCc3nnc(-c4ccccc4[N+](=O)[O-])o3)c(C#N)cc2c1	inconclusive: 1.58 µM [quencher, side channel, full curve, poor fit]	–
O=C(C[n+]1ccn(-c2ccccc2)c1)c1ccc([N+](=O)[O-])cc1	inconclusive: 20 µM [inhibitor, partial curve]	–
CCC(C)Sc1nnc(CNC(=O)C23CC4CC(CC(C4)C2)C3)n1C1CCCCC1 (stereo not drawn)	inconclusive: 12.6 µM [fluorescent, side channel, partial curve]	–
Cc1cc(N2CCN(C)CC2)nc2ccc(NC(=O)CCC(=O)NCc3ccco3)cc12	–	inactive: -2.93%
Cc1cccc(NS(=O)(=O)c2ccc(NC(=O)CN(c3cc([N+](=O)[O-])ccc3C)S(C)(=O)=O)cc2)c1	inconclusive: 8.91 µM [quencher, side channel, partial curve]	–

SMILES	Potency	FP activity change, negative = inhibition
COc1ccc(C2=CC(=O)CC(c3ccc(OC)cc3)C2)cc1 (stereo not drawn)	inconclusive: 3.55 µM [fluorescent, side channel, partial curve]	–
CCOCCCn1c(SCC(=O)Nc2ccc(NC(C)=O)cc2)nc2ccccc2c1=O	inconclusive: 35.5 µM [fluorescent, single point]	–
COc1cccc(COCC(O)CN2CCC(C(N)=O)CC2)c1 (stereo not drawn)	inconclusive: 25.1 µM [fluorescent, side channel, partial curve]	–
COc1ccc(CCNC(=O)CCC(=O)NC2CCCC(C)C2C)cc1OC (stereo not drawn)	–	inactive: 6.65%
COC(=O)[C@H](Cc1ccccc1)[C@@H](C)OS(N)(=O)=O	inconclusive: 39.8 µM [inhibitor, single point]	–
COc1cc(CNc2ccc(N3CCCC3)cc2)ccc1OCc1ccccc1	inconclusive: 7.94 µM [inhibitor, full curve]	–
Cc1csc(NC(=O)c2ccc(C)c([N+](=O)[O-])c2)n1	inconclusive: 22.4 µM [quencher, side channel, single point]	–
O=C(C1=C[C@@H](C2CC2)C[C@@H](OCCCCO)O1)N1CCN(Cc2ccccc2)CC1	inconclusive: 14.1 µM [fluorescent, side channel, partial curve]	–
Cn1cccc1C(=O)NC(=O)COC(=O)c1ccccc1Sc1ccccc1C#N	inconclusive: 35.5 µM [inhibitor, single point]	–
Cc1ccccc1-c1nc2c3ccccc3nc(=S)n2[nH]1	inconclusive: 7.94 µM [quencher, side channel, full curve]	–
CCOC(=O)c1sc(NC(=O)Nc2ccc(F)cc2)nc1C	inconclusive: 3.98 µM [quencher, side channel, single point]	–
CC(=O)Nc1ccc(-c2nc3ccc(NC(C)=O)cc3o2)cc1	inconclusive: 31.6 µM [inhibitor, single point]	–
COC(=O)C1=C(C)N(Cc2ccccc2)C(=NCc2cccc(C(F)(F)F)c2)N[C@H]1c1cccc(F)c1	inconclusive: 1.41 µM [inhibitor, full curve, poor fit]	–
CCC1CCCCN1C/C=C/c1ccccc1[N+](=O)[O-] (stereo not drawn)	inconclusive: 11.2 µM [inhibitor, partial curve]	–
O=C(N/N=C/CCc1ccccc1)c1ccc(CN2c3cccc4cccc(c34)S2(=O)=O)cc1	inconclusive: 39.8 µM [inhibitor, single point]	–
CCOC(=O)COc1ccc2c(c1)C(=O)CC(C)(c1cccnc1)O2 (stereo not drawn)	–	inactive: 0.115%
CC(C)OCCCn1c(=S)[nH]c2ccc(N3CCOCC3)cc2c1=O	inconclusive: 39.8 µM [quencher, single point]	–
COc1cc(NC(=O)c2nnn(Cc3ccc(SC)cc3)c2N)cc(OC)c1	inconclusive: 12.6 µM [quencher, side channel, partial curve]	–
